Measurements reported in the supplement of paper PMC11417369.
The other results are listed elsewhere or left out.

test system: PfAP2-HC AP2 domain (GST-tagged); test: gcPBM binding intensity (ln(normalized median fluorescence intensity)); higher = stronger DNA binding
Method in brief: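 An Agilent 4 × 180k array carrying primer-extended double-stranded 36-bp intergenic genomic probes and negative controls received GST-tagged P. falciparum DNA-binding domains expressed in E. coli, about 25 μg on average, for 1 h. The binding buffer contained 1× PBS, 1% milk, 0.2 mg/ml BSA, 0.5% salmon testes DNA and 0.03% Triton X-100. Binding intensity is the top Masliner-normalised natural-log median intensity across replicate spots of either probe orientation, read after Alexa488 anti-GST antibody staining and a 488 nm scan.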

Sequence	gcPBM binding intensity (ln)
ATATATATATATAAATGTACAGATATATTTTTTATT [XGTACX_site5445]	9.67
TTTAATTTGATAGACACATGCACACGTGCAATACTT [TGCATGCA_site777]	9.76
TACTAAAAAATATAAACACACATATATTTTACATAT [CACACA_site2042]	9.75
TATTCCTATAAAAAAACACACACATATAAATATATA [CACACA_site8727]	10.3
AAATATATTTCACGCACACACACCCCAAATAAATTT [CACACA_site3820]	11.2
ATATTTCAAAATGAAAGTACATATAAAAATTATACA [XGTACX_site3787]	9.56
AAGTATTTTTTTACATGTACATATATATATATATAT [XGTACX_site5065]	9.9
AAATAGATAAGTAGGACACACATATATATATATTAA [CACACA_site1862]	10
ATTTGCAGTATTTCGGAACACACAAACATAAATATG [CACACA_site8726]	9.69
TATAAAAAATTCTTCCTTATTTTATGATATATATAT [TGCATGCA_negctrl_site57]	9.38
TTTAATTATTAGTGTGCACACAACTATGAGTTTTTA [CACACA_site8997]	9.99
AATTACATTCAATTCTGTACTAATAGTAATTCAAAA [XGTACX_site7419]	9.52
CAAAAACATACCTACACACACAATATGTATTTATAA [CACACA_site5862]	10.1
AAATGAATATTCATAGTGCAATATATAAATGAAAAT	9.85
CATTTTTTTTTATAAATACACACGTACGGGTGCATA [CACACA_site1569]	9.58
TTCTGGCAAAATAACACACACATATATTTTATATAC [CACACA_site3242]	10.5
TTCTTAAAAAAAAATAAAATAAAAAAAAAAATAAAA [CACACA_negctrl_site99]	9.33
GAACATTTACGCCCCACACACCTACCAACAAAAAAA [CACACA_site7746]	10
ATAATTACATAGATTGGTACACATTTTTGATTGTAT [XGTACX_site3802]	9.87
TTAAAAATGTGTGTGCGTACATAATATTTCGAAAAA [XGTACX_site8197]	10
GTACAAATGATTAATCCTTTACTTATATATATATAT [XGTACX_negctrl_site138]	10
TCATTTTATTATTCTACACACTTATCTATAATTATA [CACACA_site34]	9.99

Sequence	gcPBM binding intensity (ln)
TTTTTCATATGACACACACACAAAAATAATGTGGAA [CACACA_site7692]	9.99
AAATGAACACGAAAGGAAAAAAAAATATATATATAT [CACACA_negctrl_site267]	9.56
AAAAATATATATTCAGTGCATATAACAAAAATTATA [GTGCAC_site9794]	9.73
ATTAAATAAAAAAACACACACATATATACATATATA [CACACA_site3445]	10.6
CATAATAATAGAAACACACACACATAGACATATATA [CACACA_site1308]	10.7
CATATATAACCTATAGCACACATATATAATATATAT [CACACA_site8544]	9.86
TAAAATATAGAAAATTTTATTAAATATAAAAAAATA [CACACA_negctrl_site1441]	9.53
GCATATCTATTTTCACGTACACAAACATGTATATAT [XGTACX_site3722]	9.95
ATATTACATATGTGCTGTACGCAATATATTATATCT [XGTACX_site1520]	9.92
AAGAACTTTAATAAGTGTACATTTATTGGAAACATG [XGTACX_site2995]	9.65
TTATATAAACACCAACGTACGTTCATTTAACATAAC [XGTACX_site5250]	9.77
TATATATATATATATTGTACATATGTGGTATAAATG [XGTACX_site6108]	9.93
AAAAATTAAAATATTATAGTTGAAACTTTTATAAAT [TGCATGCA_negctrl_site454]	9.19
TTTCTCTTCTAAACATGTACAAAAATACATACATAT [XGTACX_site1365]	9.76
TATATTTATTCCTGTTGTACTTTATATTATTTTTTT [XGTACX_site1415]	9.9
ATATATATATATATATGTACATACATACATAGAACT [XGTACX_site2214]	10.1
TCCCATTTATTATGGTGTACAATTAATTAAACATAA [XGTACX_site750]	9.41
TATAATATTAATGACTGTACTCATACGTATATTTAT [XGTACX_site5493]	9.76
TTTAATTTATATTTTGTGCACATCTTATTATATATA [GTGCAC_site9630]	9.88
AATTTTGTTTAGCACACACACATACATACATACATA [CACACA_site5707]	10.2
CCCATTTTGACAAAAAGTACAAGTTCAGGTTTTATA [XGTACX_site1532]	9.39
TATATTATTTTATATTGTACATACCAAATATTATAT [XGTACX_site1693]	9.54

Sequence	gcPBM binding intensity (ln)
CATGTGATAATGATTAGTACATAAACAAAAATATAT [XGTACX_site5866]	9.82
AGAAAAATAAACAAATGTACAAATTATTACTATATA [XGTACX_site1087]	9.77
ACATATTAATTATTATGACATACATATCAGTTATTA [TGCATGCA_negctrl_site126]	9.61
TTTATTTATATAATTACACACATATATACGCAAATG [CACACA_site2794]	9.73
TTTTATTCATTAATTTGTACTTATCCTTTTGCTTAA [XGTACX_site1243]	9.67
TCATTAATTAAATCTTGTACATATTCATATATATAT [XGTACX_site2241]	9.88
AAAGTATAGATGTATACACACACCAAACGTTAAAAA [CACACA_site3081]	10.1
TAAGCCAAGGGATAAATAAAATAACAAAATGAAATC [GTGCAC_negctrl_site601]	9.61
TAGTATCAATCTTATACATGCATAAAATAATTATAA [TGCATGCA_site1052]	9.53
GTGTTCTTGTTATACACACACATATTTATATTTATA [CACACA_site6615]	10
ACATTATGCCATAAATGTACACATACATATACACAG [XGTACX_site1330]	9.66
TAACTAAGGAATAATACACACAGAAATATATATTTA [CACACA_site344]	10
GATGATGTTACTTAAGTGCATATAAATTATATTTTA [GTGCAC_site9940]	9.52
AAATATATTATAAATTGTACGTTTATATATATTATT [XGTACX_site5110]	9.58
TAAAGTTTTTTTTTAACACACACATAATAAAATAAA [CACACA_site8042]	9.9
TAAAAAAATAAAAAAAAAAAATTATAAAATTATATA [GTGCAC_negctrl_site302]	9.4
GACACATATAAATATTAACACACATAATGAATTATA [CACACA_site8881]	9.93
TTATGTATTCATAACACATGCAAATAGGATCATATA [TGCATGCA_site731]	9.58
CGTTAGAGGGCTTTATCACACATGAAAAAAAAAAAA [CACACA_site5155]	9.24
CACACGCACAGACACACACACACATATAAATATGTA [CACACA_site6300]	10.6
ATATGATTTCACAAGACACACACATACAAATTTATA [CACACA_site9296]	10.1
TACAACATATTCAAATGTACAAATATAGGAATGAAA [XGTACX_site2730]	9.79

Sequence	gcPBM binding intensity (ln)
AGCGTATTATACTGACGTACATTTTATGTAACTCCA [XGTACX_site2715]	9.55
AACATAAAATGGATATGTACATAAAAATATATACTC [XGTACX_site7775]	10.1
AAAATTAAAGTAAGGACACACATATATAATACATAT [CACACA_site823]	9.99
TACACCAAAAAAAAACGTACAAAATCCCACCCAGAC [XGTACX_site4622]	11.1
AAAAAAAAAAAAAACACACACAAATTTAATATATAT [CACACA_site1695]	10.7
TATATATATAACAACACACACAGATCATAAAACTGC [CACACA_site2161]	10.2
TATATTTATTTTAACACACACATATATATATTATAT [CACACA_site4729]	10
TCCCAAGGAGTAGGCACACATAAAATATTATACATA [CACACA_site717]	9.68
ATAAAAAAAAAAAAAAAATATATATATATATATATA [XGTACX_negctrl_site424]	9.37
TTATTTTTATTATTTTGTATATATATTTATAGAAAA [XGTACX_negctrl_site465]	9.28
TGTAATAACGTTATAAAAAGTATAAAAAAAAAAAAA [CACACA_negctrl_site943]	9.57
TATATACTTTTTAATCACACTTCTTTAAAAAAAGTA [CACACA_negctrl_site1380]	9.28
TTTTAGGTCTGAATGTGTACTAAATAATATAAGTAT [XGTACX_site6554]	9.53
TACCTAATATGTTATACACACATTAGAAGTACATAT [CACACA_site5375]	9.78
CAAAATTTTTATAAGTCACACATTATCTAAGCTTAT [CACACA_site5747]	9.55
AATAAATAAATAAATTAATAAATTAATAAATTAATA [GTGCAC_negctrl_site37]	9.54
CACACAAAGGAATATACACACATATTTATATTTATA [CACACA_site7841]	9.91
ATCTATTTGTAAAGGGTGCGCATATCAATAAAAAAT [GTGCAC_site9503]	9.75
GTATATAATTTTTTATGTACTAAATTATATGTTTTT [XGTACX_site4907]	9.74
TATACCTTTGCGTGTGCATGCGCTTATATATATTTT [TGCATGCA_site152]	10.1
TTTATGTGTATGTTTACACACATAAAAAAATATATG [CACACA_site3039]	9.72
TATTTTTAATATTTTGCATGCAGTATTTTATAAAAT [TGCATGCA_site250]	9.52
